Consider one molecule from patent publication US9457081B2, “Combination therapy using c-Met inhibitor and beta-catenin inhibitor” (Samsung Electronics Co., Ltd., priority 2013, dated 2016).

Conditions in all cases: rank among the four antibodies huAbF46-H4-A1, -A2, -A3, -A5
Experiment [1] deals with T1, c-Met (Homo sapiens, UniProt P08581). Nature of the experiment: Affinity for c-Met of the affinity-matured IgG antibodies. The class given is binding.
Experiment [2] has as its target T1, c-Met. Kind of experiment: c-Met degradation degree by the anti-c-Met antibodies. Type of experiment: cell-based.
A further experiment concerns Akt phosphorylation. Kind of experiment: Akt phosphorylation by the anti-c-Met antibodies. Type of experiment: cell-based.

T1 sequence (P08581 25-1390): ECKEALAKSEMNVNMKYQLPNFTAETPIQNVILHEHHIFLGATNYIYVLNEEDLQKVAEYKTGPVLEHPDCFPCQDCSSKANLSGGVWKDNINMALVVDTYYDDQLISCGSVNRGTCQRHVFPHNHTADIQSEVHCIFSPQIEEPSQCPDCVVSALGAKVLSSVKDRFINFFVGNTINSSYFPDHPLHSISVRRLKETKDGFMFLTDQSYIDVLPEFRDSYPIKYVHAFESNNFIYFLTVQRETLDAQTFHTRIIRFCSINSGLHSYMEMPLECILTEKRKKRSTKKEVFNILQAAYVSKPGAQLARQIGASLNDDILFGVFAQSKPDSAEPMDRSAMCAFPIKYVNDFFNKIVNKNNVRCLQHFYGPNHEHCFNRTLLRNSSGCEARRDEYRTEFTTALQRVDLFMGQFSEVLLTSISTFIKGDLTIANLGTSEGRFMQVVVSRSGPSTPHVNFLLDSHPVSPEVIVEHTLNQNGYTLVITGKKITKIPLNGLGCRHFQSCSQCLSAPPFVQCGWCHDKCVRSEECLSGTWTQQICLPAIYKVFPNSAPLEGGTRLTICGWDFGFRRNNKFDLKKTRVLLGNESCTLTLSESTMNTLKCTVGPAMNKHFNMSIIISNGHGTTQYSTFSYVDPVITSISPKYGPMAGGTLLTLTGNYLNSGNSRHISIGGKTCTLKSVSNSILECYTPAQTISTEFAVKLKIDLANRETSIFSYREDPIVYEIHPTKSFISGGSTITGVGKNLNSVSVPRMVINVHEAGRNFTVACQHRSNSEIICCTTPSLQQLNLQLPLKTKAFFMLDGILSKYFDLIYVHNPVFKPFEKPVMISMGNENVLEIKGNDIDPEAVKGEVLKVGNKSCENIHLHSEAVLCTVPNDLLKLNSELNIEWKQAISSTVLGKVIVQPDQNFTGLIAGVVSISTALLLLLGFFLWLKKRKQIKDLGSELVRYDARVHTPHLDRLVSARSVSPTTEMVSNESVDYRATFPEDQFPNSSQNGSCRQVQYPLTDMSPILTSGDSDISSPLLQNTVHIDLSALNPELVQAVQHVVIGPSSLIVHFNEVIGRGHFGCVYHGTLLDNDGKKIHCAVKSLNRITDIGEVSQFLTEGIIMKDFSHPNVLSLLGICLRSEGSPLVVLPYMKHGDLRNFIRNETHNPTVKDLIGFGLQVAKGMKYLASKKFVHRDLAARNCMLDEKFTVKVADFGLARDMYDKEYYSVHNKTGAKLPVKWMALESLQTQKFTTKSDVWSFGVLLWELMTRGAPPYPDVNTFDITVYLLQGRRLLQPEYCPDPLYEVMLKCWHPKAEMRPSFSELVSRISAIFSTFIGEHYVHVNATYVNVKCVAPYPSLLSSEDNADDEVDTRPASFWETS

B1: huAbF46-H4-A1: affinity-matured humanized anti-c-Met antibody, L3-1 origin (antibody)
heavy: EVQLVESGGGLVQPGGSLRLSCAASGFTFTDYYMSWVRQAPGKGLEWLGFIRNKANGYTTEYSASVKGRFTISRDNSKNTLYLQMNSLRAEDTAVYYCARDNWFAYWGQGTLVTVSSASTKGPSVFPLAPSSKSTSGGTAALGCLVKDYFPEPVTVSWNSGALTSGVHTFPAVLQSSGLYSLSSVVTVPSSSLGTQTYICNVNHKPSNTKVDKKVEPKSCDCH[human IgG1 Fc not given here]
light: DIQMTQSPSSLSASVGDRVTITCKSSQSLLASGNQNNYLAWHQQKPGKAPKMLIIWASTRVSGVPSRFSGSGSGTDFTLTISSLQPEDFATYYCQQSYSRPYTFGQGTKVEIKRTVAAPSVFIFPPSDEQLKSGTASVVCLLNNFYPREAKVQWKVDNALQSGNSQESVTEQDSKDSTYSLSSTLTLSKADYEKHKVYACEVTHQGLSSPVTKSFNRGEC
B1: the “affinity for c-Met” value with c-Met [1] is recorded as “highest”. Also, in the experiment with c-Met [2], the c-Met degradation degree result was “lowest”. For the same molecule, the Akt phosphorylation result in the experiment with Akt phosphorylation is on record as “lowest”.
